Test results as given in article PMC11447022, “Distinct binding conformations of epinephrine with α- and β-adrenergic receptors” (Experimental & Molecular Medicine, 2024).

Biological target: T1, human α2A-adrenergic receptor (human, UniProt P08913 1-465)
T1 construct: α2A-adrenergic receptor, human; printed residue numbers (D128, R146, I154, R241, Y441) are those of the deposited models; eGFP and 8xHis follow a PreScission site and were removed by PreScission protease during complex assembly; In the cAMP assays α2A-AR was transfected into HEK293 or CHO cells; that plasmid construct is not described; also called α2A-AR; source: Sf9 insect cells, purified …
T1 sequence (looked up): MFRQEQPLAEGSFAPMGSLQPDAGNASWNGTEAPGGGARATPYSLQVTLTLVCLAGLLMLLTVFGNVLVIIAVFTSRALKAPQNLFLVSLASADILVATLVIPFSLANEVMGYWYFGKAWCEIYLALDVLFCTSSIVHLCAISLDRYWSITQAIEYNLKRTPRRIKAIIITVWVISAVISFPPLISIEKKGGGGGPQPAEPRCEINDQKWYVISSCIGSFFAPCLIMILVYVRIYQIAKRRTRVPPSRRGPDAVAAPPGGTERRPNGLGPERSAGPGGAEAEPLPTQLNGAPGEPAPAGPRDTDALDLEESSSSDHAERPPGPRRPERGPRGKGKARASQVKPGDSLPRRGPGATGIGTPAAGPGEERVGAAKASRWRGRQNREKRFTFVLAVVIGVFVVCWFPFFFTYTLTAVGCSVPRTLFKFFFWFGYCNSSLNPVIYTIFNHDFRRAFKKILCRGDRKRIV
Experiment: cryo-EM structure; epinephrine–α2A-AR–Gi complex assembled from purified proteins with apyrase and 1 mM epinephrine, purified by SEC in 10 mM HEPES (pH 7), 100 mM NaCl, 0.1 mM TCEP, 0.02% LMNG, 25 µM epinephrine; Gαi nucleotide free; 2.8 Å
Settings: both partners purified

B1: rat Gαi dominant negative (G203A) (natural protein)
chain: not shown
notes: Nucleotide free in the complex with α2A-AR (apyrase added during assembly); also called Gαi1(G203A); Gαi(G203A); source: E. coli BL21 (DE3), purified (Ni-NTA, SEC)
binding result: binds
